Measured values reported in PubChem BioAssay AID504332 (National Center for Advancing Translational Sciences (NCATS), 2011).
Hit rate of the full screen: of about 350,000 compounds, about 31,000 (8.9%) were called active. Inconclusive results, whose numbers are uncertain, are shown with a selection of clear calls. Calls follow the shape of the dose curve; as a rule, active = well fitted inhibition curve with a large enough effect; inconclusive = small, poorly fitted or top-dose-only effect; inactive = no such curve, though single readings can be large or run the other way. Potencies of inconclusive entries are doubtful fits and often do not repeat.

These compounds were tested against Histone-lysine N-methyltransferase EHMT2 (Homo sapiens) (UniProt Q96KQ7) (assay: qHTS Assay for Inhibitors of Histone Lysine Methyltransferase G9a). Conditions: G9a H3K9 monomethylation, AlphaScreen, 2 h; activity, negative = inhibition: at 59 µM (top of the series) unless noted.
Summary of the method: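 Enzyme 20 nM + cpd, 15 min RT; add b-H3K9 pep 500 nM / SAM 20 uM; 2 h RT; anti-H3K9me1 Ab 0.5 ug/mL + SA donor / anti-rabbit acceptor beads 20 ug/mL each, 10 min; AlphaScreen read.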
% is scaled to controls: 0 for no effect and ±100 for the full control effect; potency is read from the fitted curve at half-maximal effect; tags tell the direction and shape of the fitted curve.
Also: nearly all actives have a fitted effect of over 75% in size.

UniProt Q96KQ7, sequence (Q96KQ7 whole entry, looked up): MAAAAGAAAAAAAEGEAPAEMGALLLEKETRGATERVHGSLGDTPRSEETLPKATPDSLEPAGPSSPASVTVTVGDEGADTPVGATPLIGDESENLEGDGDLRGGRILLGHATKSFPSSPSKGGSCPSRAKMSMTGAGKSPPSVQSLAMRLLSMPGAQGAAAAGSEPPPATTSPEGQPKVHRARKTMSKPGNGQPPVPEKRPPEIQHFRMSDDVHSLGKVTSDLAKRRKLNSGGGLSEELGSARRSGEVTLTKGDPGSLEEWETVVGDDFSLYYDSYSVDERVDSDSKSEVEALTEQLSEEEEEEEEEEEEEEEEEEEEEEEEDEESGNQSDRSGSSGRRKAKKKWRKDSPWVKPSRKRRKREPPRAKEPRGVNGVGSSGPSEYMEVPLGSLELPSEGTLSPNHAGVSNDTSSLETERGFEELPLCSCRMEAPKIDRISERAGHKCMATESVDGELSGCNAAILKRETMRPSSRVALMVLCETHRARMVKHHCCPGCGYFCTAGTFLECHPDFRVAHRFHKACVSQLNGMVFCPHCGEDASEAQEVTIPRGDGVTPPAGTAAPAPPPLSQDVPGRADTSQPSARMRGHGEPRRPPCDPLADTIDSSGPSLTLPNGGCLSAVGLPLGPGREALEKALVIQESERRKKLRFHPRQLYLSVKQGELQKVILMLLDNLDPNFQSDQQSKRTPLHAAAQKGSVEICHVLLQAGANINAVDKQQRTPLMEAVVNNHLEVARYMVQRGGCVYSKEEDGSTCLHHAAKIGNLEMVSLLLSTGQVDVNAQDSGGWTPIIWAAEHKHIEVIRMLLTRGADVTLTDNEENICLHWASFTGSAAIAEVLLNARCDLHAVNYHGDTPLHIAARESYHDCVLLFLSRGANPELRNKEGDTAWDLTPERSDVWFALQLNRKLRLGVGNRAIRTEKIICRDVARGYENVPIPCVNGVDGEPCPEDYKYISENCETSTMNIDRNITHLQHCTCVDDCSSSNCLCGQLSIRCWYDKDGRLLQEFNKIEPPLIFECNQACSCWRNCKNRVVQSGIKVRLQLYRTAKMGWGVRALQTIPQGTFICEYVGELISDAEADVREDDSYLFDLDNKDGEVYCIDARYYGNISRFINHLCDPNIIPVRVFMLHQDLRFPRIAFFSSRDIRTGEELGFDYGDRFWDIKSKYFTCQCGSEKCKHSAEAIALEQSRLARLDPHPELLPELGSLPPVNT

| SMILES | Potency | activity, negative = inhibition |
| --- | --- | --- |
| Cc1cc(C)nc(Sc2nc(Cl)nc(N(c3ccccc3)c3ccccc3)n2)n1 | inconclusive: 11.2 µM [inhibitor, partial curve, poor fit] | – |
| COc1ccc(-n2nnnc2/C=C\Nc2ccc(C)cc2)cc1 | inactive | – |
| Cc1cc(OC(C)C(=O)N(Cc2ccc(N(C)C)cc2)Cc2ccco2)ccc1Cl (stereo unspecified) | active: 12.6 µM | – |
| CC1CCCN(CCCNC(=O)c2ccc3c(c2)N(Cc2ccc(Cl)cc2)C(=O)c2ccccc2S3(=O)=O)C1 (stereo unspecified) | inconclusive: 15.8 µM [inhibitor, partial curve, poor fit] | – |
| CCCc1cc(=O)oc2cc(OCc3nn[nH]n3)ccc12 | inconclusive: 89.1 µM [inhibitor, single point] | – |
| COC(=O)C1=CN(Cc2ccc(C)cc2)C=C(C(=O)OC)C1c1ccc(F)c(F)c1 | inconclusive: 1.26 µM [inhibitor, single point] | – |
| CCOC(=O)c1cc([N+](=O)[O-])c([N+](=O)[O-])cc1NC(C)=O | inconclusive: 50.1 µM [inhibitor, partial curve, poor fit] | – |
| O=C(CSc1nccc(-c2cccs2)n1)Nc1cccc(Cl)c1Cl | inconclusive: 79.4 µM [inhibitor, single point] | – |
| COc1ccc(NC(=O)c2nc[nH]c2C(=O)N2CCC(C)CC2)cc1 | – | inconclusive: -85.5% [inhibitor] |
| O=C(CSc1nccc(=O)[nH]1)NCc1ccco1 | inconclusive: 56.2 µM [inhibitor, partial curve] | – |
| O=C(Nc1sc2c(c1C(=O)O)CCCC2)C(=O)N1CCOCC1 | inconclusive: 50.1 µM [inhibitor, single point] | – |
| CCCCOC(=O)Cn1c(=N)n(CCN(CC)CC)c2ccccc21 | inconclusive: 1.78 µM [inhibitor, partial curve, poor fit] | – |
| COc1ccc(NC(=O)CN(C)C(=O)CSc2nc3ccccc3s2)cc1 | inconclusive: 12.6 µM [inhibitor, partial curve, poor fit] | – |
| COc1ccc(C2=NOC(C(=O)N3CCN(C(=O)c4ccco4)CC3)C2)cc1OC (stereo unspecified) | inconclusive: 39.8 µM [inhibitor, partial curve, poor fit] | – |
| CC(=O)c1ccc(NC(=O)C2CCCN2S(=O)(=O)c2cccc3cccnc23)cc1 (stereo unspecified) | inconclusive: 89.1 µM [inhibitor, single point] | – |
| O=C(NCc1ccccc1)c1ccc2c(c1)CCN2S(=O)(=O)c1ccc(Cl)cc1 | inactive | – |
| C/C=C/CSc1nc2c(c(=O)[nH]c(=O)n2C)n1C(C)C | inconclusive: 50.1 µM [inhibitor, partial curve, poor fit] | – |
| COc1ccc(N2C(=O)C3C(C2=O)C2C=CC3C23CC3)c(OC)c1 (stereo unspecified) | inconclusive: 44.7 µM [inhibitor, partial curve, poor fit] | – |
| COc1ccc(Cl)cc1NC(=O)Cn1ccn(-c2cc(C)cc(C)c2)c(=O)c1=O | inactive | – |
| Cn1nnc2c(N3CCN(c4ccc(F)cc4)CC3)ncnc21 | inactive | – |
| CCOC(=O)CC1C(=O)NCCN1Cc1ccc(OC)c(OC)c1 (stereo unspecified) | inactive | – |
| Cc1cc(C)n2c(Br)c(CSc3nc4ccccc4o3)nc2n1 | – | inconclusive: -101% [inhibitor] |
| CC(C)Oc1ccc(C(=O)N(Cc2ccc(N(C)C)cc2)C2CCS(=O)(=O)C2)cc1 (stereo unspecified) | inconclusive: 39.8 µM [inhibitor, partial curve, poor fit] | – |
| CCOc1ccc(NC2C=CS(=O)(=O)C2)cc1 (stereo unspecified) | inconclusive: 39.8 µM [inhibitor, single point] | – |

| SMILES | Potency | activity, negative = inhibition |
| --- | --- | --- |
| CCOC(=O)c1c(C)[nH]c(C(=O)/C(C#N)=C/c2ccc(OC(F)F)c(OC)c2)c1C | inactive | – |
| Cc1ccc(CN2CC(C(=O)Nc3ccc(C)cn3)CC2=O)cc1 (stereo unspecified) | inconclusive: 28.2 µM [inhibitor, partial curve] | – |
| O=C(c1ccccc1)c1c2c(cc3sc4ccccc4[n+]13)-c1cccc3cccc-2c13 | inconclusive: 35.5 µM [inhibitor, single point] | – |
| O=C(NC(C(=O)c1ccccc1)N1CCCCCC1)c1ccco1 (stereo unspecified) | inconclusive: 22.4 µM [inhibitor, single point] | – |
| COc1cccc(CN2CCC(n3nccc3NC(=O)CCCc3ccccc3)CC2)c1O | inactive | – |
| COc1cc(C(C)=O)ccc1OC(=O)c1cc2cccc(OC)c2oc1=O | active: 35.5 µM | – |
| Cc1ccc(C2=C/C(=C/c3cccs3)C(=O)O2)cc1 | inconclusive: 15.8 µM [inhibitor, single point] | – |
| CCN1CCN(CCCNC(=O)C2CCN(c3nnc(-n4c(C)ccc4C)s3)CC2)CC1 | inactive | – |
| CCc1ccc(CNC(=O)Cn2nc(-c3ccc(C)cc3)ccc2=O)cc1 | inactive | – |
| O=C(O)c1cc([N+](=O)[O-])ccc1Nc1ccccc1 | inactive | – |
| Cc1noc(C)c1CCC(=O)NC1CCCN(Cc2ccc(CC(C)C)cc2)C1 (stereo unspecified) | inactive | – |
| CC(OC(=O)CC1CC2CCC1C2)C(=O)Nc1cccc(S(=O)(=O)N2CCOCC2)c1 (stereo unspecified) | inconclusive: 44.7 µM [inhibitor, partial curve, poor fit] | – |
| CC(=O)c1ccc(OCC(O)CN2CCN(c3ccccn3)CC2)cc1 (stereo unspecified) | active: 56.2 µM | – |
| Cc1ccccc1Cn1nnc(-c2ccc(F)cc2)n1 | inactive | – |
| Cc1ccc(N2CCN(C(=O)c3cc4cc5ccc(C)cc5nc4s3)CC2C)cc1 (stereo unspecified) | inactive | – |
| NC(=O)COc1ccc2cc(-c3ccccc3)c(=O)oc2c1 | inactive | – |
| Cc1ccn(C)c(=N)c1 | inconclusive: 50.1 µM [inhibitor, partial curve, poor fit] | – |
| CCOc1ccc(N(CC(=O)Nc2cccc(Cl)c2)S(=O)(=O)c2c(C)noc2C)cc1 | inconclusive: 89.1 µM [inhibitor, single point] | – |
| Cc1ccc2oc(=O)c3cc(C(=O)NCCCN4CCCCCC4)sc3c2c1 | inconclusive: 79.4 µM [inhibitor, single point] | – |
| COc1ccccc1NC(=O)c1oc2ccccc2c1NC(=O)Cc1ccccc1 | inactive | – |
| COc1cc(C)c(S(=O)(=O)n2nnc3ccccc32)cc1C | inconclusive: 39.8 µM [inhibitor, single point] | – |
| CCc1ccc(C2CC(c3ccc(Cl)cc3)=NNC2=O)cc1 (stereo unspecified) | inconclusive: 79.4 µM [inhibitor, partial curve] | – |
| CN(Cc1nccn1C)C(=O)C1CCC(=O)N(Cc2cccc(C(F)(F)F)c2)C1 (stereo unspecified) | inactive | – |
| Cc1c(NC(=O)C(C)OC(=O)CNC(=O)c2ccccc2)c(=O)n(-c2ccccc2)n1C (stereo unspecified) | inactive | – |

| SMILES | Potency | activity, negative = inhibition |
| --- | --- | --- |
| Cc1cccn2c(=O)c(/C=C(\C#N)C(=O)NC3CCS(=O)(=O)C3)c(N3CC(C)OC(C)C3)nc12 (stereo unspecified) | inconclusive: 50.1 µM [inhibitor, partial curve, poor fit] | – |
| CC(C)N1C(=O)S/C(=C/c2cccnc2)C1=O | inactive | – |
| O=C(O)c1ccc(N/N=C/c2cn(-c3ccccc3)nc2-c2cccs2)cc1 | inconclusive: 50.1 µM [inhibitor, partial curve, poor fit] | – |
| COc1ccc(Cc2n[nH]c(=S)n2NC(=O)Nc2ccc(Cl)c(Cl)c2)cc1 | – | inconclusive: -89.7% [inhibitor] |
| COc1ccc(-c2noc(CSc3nnc(C)n3-c3cccc(C)c3)n2)cc1 | inactive | – |
| CCCCC(c1nnnn1CC1CCCO1)N1CCN(c2ccccc2)CC1 (stereo unspecified) | inconclusive: 50.1 µM [inhibitor, partial curve, poor fit] | – |
| COc1ccc(N2CCN(C(=O)c3cccc(NC(=O)c4ccco4)c3)CC2)cc1 | inconclusive: 3.98 µM [inhibitor, full curve] | – |
| CSc1nc(-c2ccc(C)cc2)[nH]c1S(=O)(=O)c1ccccc1 | – | inconclusive: -101% [inhibitor] |
| Cc1nnc(SCc2nnc(-c3cccs3)o2)s1 | inactive | – |
| O=C(O)c1ccc(N/N=C/c2cccc(F)c2)cc1 | inconclusive: 3.16 µM [inhibitor, full curve, poor fit] | – |
| CCc1ccc(C(=O)NCC2COc3ccccc3O2)o1 (stereo unspecified) | inconclusive: 39.8 µM [inhibitor, single point] | – |
| CC(=O)Oc1ccc(C(=O)Nc2cccc(C(=O)NC(C)(C)C)c2)cc1 | inconclusive: 89.1 µM [inhibitor, single point] | – |
| CO/N=C(/C(=O)NC1C(=O)N2C(C(=O)O)=C(COC(N)=O)CSC12)c1ccco1 (stereo unspecified) | – | inactive: -3.34% [at 2.33 µM] |
| O=C(NCCc1ccccc1)c1ccc(Nc2nc3ccccc3n3nnnc23)cc1 | inactive | – |
| Cn1c(Nc2ccccc2)nc2ccccc21 | inconclusive: 50.1 µM [inhibitor, partial curve] | – |
| Cc1cccc(Nc2nc(N)c([N+](=O)[O-])c(N3CCCC(C)C3)n2)c1 (stereo unspecified) | active: 39.8 µM | – |
| CCOC(=O)c1cnn(-c2ccccc2)c1NC(=O)CN1CCCCC1 | inconclusive: 28.2 µM [inhibitor, single point] | – |
| CCN(CC(=O)Nc1ccc(NC(C)=O)cc1)C(=O)/C=C/c1cn(-c2ccccc2)nc1-c1cccs1 | active: 31.6 µM | – |
| N#Cc1cccc(S(=O)(=O)Nc2c(NC3CCCCC3)c3ccccc3oc2=O)c1 | inconclusive: 20 µM [inhibitor, full curve] | – |
| CCOc1ccc(NC(=O)C2CSC(c3ccncc3)=N2)cc1 (stereo unspecified) | active: 50.1 µM | – |
| O=C(Nc1ccc(OC(F)(F)F)cc1)Nc1cccc([N+](=O)[O-])c1 | inactive | – |
| N=C1S/C(=C\c2ccco2)C(=O)N1c1ccc2c(c1)OCO2 | active: 44.7 µM | – |
| COC(=O)c1ccc(N2CCN(C)CC2)c(NC(=O)COc2ccc(C)cc2)c1 | inconclusive: 89.1 µM [inhibitor, single point] | – |
